Results published in the supplement of paper PMC8728848.
The other results are listed elsewhere or left out.

Experiments:
Test in all cases: glycan array binding signal (z-score within array); higher = stronger binding
Conditions in all cases: glycan notation: IUPAC condensed, linker removed
Kdn(a2-3)Gal(b1-3)GlcNAc = target: Kdn(a2-3)Gal(b1-3)GlcNAc
Method in brief: (§1)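 The binding signal is a Z-score computed within each array. Data were drawn from 3228 arrays in the Consortium for Functional Glycomics database, restricted to those with a known protein sequence. Scores were averaged over arrays of the same protein sequence at different concentrations or buffers, and over linkers, and negative values can be taken as non-binding.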

Kdn(a2-3)Gal(b1-4)Glc = target: Kdn(a2-3)Gal(b1-4)Glc
Method in brief: as §1

Kdn(a2-3)Gal(b1-4)GlcNAc = target: Kdn(a2-3)Gal(b1-4)GlcNAc
Method in brief: as §1

[1] = target: Kdn(a2-3)Gal(b1-4)[Fuc(a1-3)]GlcNAc
Method in brief: as §1

Kdn(a2-6)Gal(b1-4)GlcNAc = target: Kdn(a2-6)Gal(b1-4)GlcNAc
Method in brief: as §1

[2] = target: Man(a1-2)Man(a1-2)Man(a1-3)Man
Method in brief: as §1

[3] = target: Man(a1-2)Man(a1-2)Man(a1-6)[Man(a1-3)]Man
Method in brief: as §1

Man(a1-2)Man(a1-3)Man = target: Man(a1-2)Man(a1-3)Man
Method in brief: as §1

[4] = target: Man(a1-2)Man(a1-3)[Man(a1-2)Man(a1-6)]Man
Method in brief: as §1

[5] = target: Man(a1-2)Man(a1-3)[Man(a1-2)Man(a1-6)]Man(a1-6)[Man(a1-2)Man(a1-2)Man(a1-3)]Man
Method in brief: as §1

[6] = target: Man(a1-2)Man(a1-3)[Man(a1-2)Man(a1-6)]Man(a1-6)[Man(a1-2)Man(a1-2)Man(a1-3)]Man(b1-4)GlcNAc(b1-4)GlcNAc
Method in brief: as §1

[7] = target: Man(a1-2)Man(a1-3)[Man(a1-6)]Man(a1-6)[Man(a1-2)Man(a1-3)]Man(b1-4)GlcNAc(b1-4)GlcNAc
Method in brief: as §1

[8] = target: Man(a1-2)Man(a1-6)[Man(a1-3)]Man(a1-6)[Man(a1-2)Man(a1-2)Man(a1-3)]Man
Method in brief: as §1

[9] = target: Man(a1-2)Man(a1-6)[Man(a1-3)]Man(a1-6)[Man(a1-2)Man(a1-2)Man(a1-3)]Man(b1-4)GlcNAc(b1-4)GlcNAc
Method in brief: as §1

Man(a1-3)[Man(a1-6)]Man = target: Man(a1-3)[Man(a1-6)]Man
Method in brief: as §1

[10] = target: Man(a1-3)[Man(a1-6)]Man(a1-6)[Man(a1-2)Man(a1-3)]Man(b1-4)GlcNAc(b1-4)GlcNAc
Method in brief: as §1

[11] = target: Man(a1-3)[Man(a1-6)]Man(a1-6)[Man(a1-3)]Man
Method in brief: as §1

[12] = target: Man(a1-3)[Man(a1-6)]Man(a1-6)[Man(a1-3)]Man(b1-4)GlcNAc(b1-4)GlcNAc
Method in brief: as §1

[13] = target: Man(a1-3)[Man(a1-6)]Man(b1-4)GlcNAc(b1-4)GlcNAc
Method in brief: as §1

[14] = target: Man(a1-3)[Man(a1-6)]Man(b1-4)GlcNAc(b1-4)[Fuc(a1-6)]GlcNAc
Method in brief: as §1

Man(a1-6)Man = target: Man(a1-6)Man
Method in brief: as §1

Man(b1-4)GlcNAc = target: Man(b1-4)GlcNAc
Method in brief: as §1

MurNAc(b1-4)GlcNAc = target: MurNAc(b1-4)GlcNAc
Method in brief: as §1

Neu5Ac(a2-3)Gal = target: Neu5Ac(a2-3)Gal
Method in brief: as §1

[15] = target: Neu5Ac(a2-3)Gal(b1-3)GalNAc
Method in brief: as §1

[16] = target: Neu5Ac(a2-3)Gal(b1-3)GalNAc(b1-3)Gal(a1-4)Gal(b1-4)Glc
Method in brief: as §1

[17] = target: Neu5Ac(a2-3)Gal(b1-3)GalNAc(b1-4)[Neu5Ac(a2-3)]Gal(b1-4)Glc
Method in brief: as §1

[18] = target: Neu5Ac(a2-3)Gal(b1-3)GalNAc(b1-4)[Neu5Ac(a2-8)Neu5Ac(a2-3)]Gal(b1-4)Glc
Method in brief: as §1

[19] = target: Neu5Ac(a2-3)Gal(b1-3)GalNAc6S
Method in brief: as §1

[20] = target: Neu5Ac(a2-3)Gal(b1-3)GlcNAc
Method in brief: as §1

[21] = target: Neu5Ac(a2-3)Gal(b1-3)GlcNAc(b1-2)Man
Method in brief: as §1

[22] = target: Neu5Ac(a2-3)Gal(b1-3)GlcNAc(b1-2)Man(a1-3)[GlcNAc(b1-4)][Neu5Ac(a2-3)Gal(b1-3)GlcNAc(b1-2)Man(a1-6)]Man(b1-4)GlcNAc(b1-4)GlcNAc
Method in brief: as §1

[23] = target: Neu5Ac(a2-3)Gal(b1-3)GlcNAc(b1-2)Man(a1-3)[Neu5Ac(a2-3)Gal(b1-3)GlcNAc(b1-2)Man(a1-6)]Man(b1-4)GlcNAc(b1-4)GlcNAc
Method in brief: as §1

[24] = target: Neu5Ac(a2-3)Gal(b1-3)GlcNAc(b1-3)Gal(b1-3)GlcNAc
Method in brief: as §1

[25] = target: Neu5Ac(a2-3)Gal(b1-3)GlcNAc(b1-3)Gal(b1-4)GlcNAc
Method in brief: as §1

[26] = target: Neu5Ac(a2-3)Gal(b1-3)GlcNAc(b1-3)GalNAc
Method in brief: as §1

[27] = target: Neu5Ac(a2-3)Gal(b1-3)GlcNAc(b1-4)Gal(b1-4)Glc
Method in brief: as §1

[28] = target: Neu5Ac(a2-3)Gal(b1-3)GlcNAc(b1-6)GalNAc
Method in brief: as §1

B1: Arath Fbox (Arabidopsis thaliana), NP_178341.1 (protein)
chain: EFTWGRKRRVKSESSPFDSFPEDCISYIISFTNPRDACVAATVSKTFESTVKSDIIWEKFLPADYESLIPPSRVFSSKKELYFSLCNDPVLFDDDKKSVWLEKASGKRCLMLSAMNLSIIWGDNPQYWQWIPIPESRFEKVAKLRDVCWFEIRGRTNTRVLSPRTRYSAYIVFKGVDKCYGFQNVAIEAAVGVVGQEPSRRLICFSEAIRRGRRNVVKPKQREDGWMEIELGEFFNDGGIMDNDEIEMSALETKQLNRKCGLIIQGIEIRPAKILAAAAASFLEQKLISEEDLNSAVDHHHHHH
glycan array binding signal (z-score) (Kdn(a2-3)Gal(b1-3)GlcNAc): -0.723 | glycan array binding signal (z-score) (Kdn(a2-3)Gal(b1-4)Glc): 0.084 | glycan array binding signal (z-score) (Kdn(a2-3)Gal(b1-4)GlcNAc): -0.701 | glycan array binding signal (z-score) [1]: 1.23 | glycan array binding signal (z-score) (Kdn(a2-6)Gal(b1-4)GlcNAc): -0.608 | glycan array binding signal (z-score) [2]: -0.662 | glycan array binding signal (z-score) [3]: -0.656 | glycan array binding signal (z-score) (Man(a1-2)Man(a1-3)Man): -0.502 | glycan array binding signal (z-score) [4]: -0.73 | glycan array binding signal (z-score) [5]: -0.653 | glycan array binding signal (z-score) [6]: 0.244 | glycan array binding signal (z-score) [7]: -0.507 | glycan array binding signal (z-score) [8]: -0.637 | glycan array binding signal (z-score) [9]: -0.362 | glycan array binding signal (z-score) (Man(a1-3)[Man(a1-6)]Man): -0.448 | glycan array binding signal (z-score) [10]: -0.052 | glycan array binding signal (z-score) [11]: -0.662 | glycan array binding signal (z-score) [12]: 1.57 | glycan array binding signal (z-score) [13]: -0.721 | glycan array binding signal (z-score) [14]: -0.72 | glycan array binding signal (z-score) (Man(a1-6)Man): 1.25 | glycan array binding signal (z-score) (Man(b1-4)GlcNAc): -0.667 | glycan array binding signal (z-score) (MurNAc(b1-4)GlcNAc): -0.651 | glycan array binding signal (z-score) (Neu5Ac(a2-3)Gal): 1.31 | glycan array binding signal (z-score) [15]: -0.605 | glycan array binding signal (z-score) [16]: -0.412 | glycan array binding signal (z-score) [17]: -0.594 | glycan array binding signal (z-score) [18]: -0.392 | glycan array binding signal (z-score) [19]: -0.626 | glycan array binding signal (z-score) [20]: -0.693 | glycan array binding signal (z-score) [21]: -0.092 | glycan array binding signal (z-score) [22]: -0.608 | glycan array binding signal (z-score) [23]: -0.599 | glycan array binding signal (z-score) [24]: -0.74 | glycan array binding signal (z-score) [25]: -0.661 | glycan array binding signal (z-score) [26]: -0.254 | glycan array binding signal (z-score) [27]: -0.518 | glycan array binding signal (z-score) [28]: -0.024
